# According to the supplement of paper PMC8728848:
# The list shows a part of the results.
# Key:
# Assay in all cases: glycan array binding signal (z-score within array); higher = stronger binding
# Settings in all cases: glycan notation: IUPAC condensed, linker removed
# [1] = molecular target: Neu5Ac(a2-3)Gal(b1-3)GalNAc
# Outline: (§1)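 The Consortium for Functional Glycomics database supplied 3228 glycan arrays, of which those lacking an available protein sequence were dropped. The binding signal, a within-array Z-score, was averaged across arrays of the same protein sequence and across linkers. Negative scores can be read as non-binding.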
# [2] = molecular target: Neu5Ac(a2-3)Gal(b1-3)GalNAc(b1-3)Gal(a1-4)Gal(b1-4)Glc
# Outline: as §1
# [3] = molecular target: Neu5Ac(a2-3)Gal(b1-3)GalNAc(b1-4)Gal(b1-4)Glc
# Outline: as §1
# [4] = molecular target: Neu5Ac(a2-3)Gal(b1-3)GalNAc(b1-4)[Neu5Ac(a2-3)]Gal(b1-4)Glc
# Outline: as §1
# [5] = molecular target: Neu5Ac(a2-3)Gal(b1-3)GalNAc(b1-4)[Neu5Ac(a2-8)Neu5Ac(a2-3)]Gal(b1-4)Glc
# Outline: as §1
# [6] = molecular target: Neu5Ac(a2-3)Gal(b1-3)GalNAc6S
# Outline: as §1
# [7] = molecular target: Neu5Ac(a2-3)Gal(b1-3)GlcNAc
# Outline: as §1
# [8] = molecular target: Neu5Ac(a2-3)Gal(b1-3)GlcNAc(b1-2)Man
# Outline: as §1
# [9] = molecular target: Neu5Ac(a2-3)Gal(b1-3)GlcNAc(b1-2)Man(a1-3)[GlcNAc(b1-4)][Neu5Ac(a2-3)Gal(b1-3)GlcNAc(b1-2)Man(a1-6)]Man(b1-4)GlcNAc(b1-4)GlcNAc
# Outline: as §1
# [10] = molecular target: Neu5Ac(a2-3)Gal(b1-3)GlcNAc(b1-2)Man(a1-3)[Neu5Ac(a2-3)Gal(b1-3)GlcNAc(b1-2)Man(a1-6)]Man(b1-4)GlcNAc(b1-4)GlcNAc
# Outline: as §1
# [11] = molecular target: Neu5Ac(a2-3)Gal(b1-3)GlcNAc(b1-2)[Neu5Ac(a2-3)Gal(b1-3)GlcNAc(b1-4)]Man(a1-6)[Neu5Ac(a2-3)Gal(b1-3)GlcNAc(b1-2)Man(a1-3)]Man(b1-4)GlcNAc(b1-4)GlcNAc
# Outline: as §1
# [12] = molecular target: Neu5Ac(a2-3)Gal(b1-3)GlcNAc(b1-3)Gal(b1-3)GlcNAc
# Outline: as §1
# [13] = molecular target: Neu5Ac(a2-3)Gal(b1-3)GlcNAc(b1-3)Gal(b1-4)GlcNAc
# Outline: as §1
# [14] = molecular target: Neu5Ac(a2-3)Gal(b1-3)GlcNAc(b1-3)GalNAc
# Outline: as §1
# [15] = molecular target: Neu5Ac(a2-3)Gal(b1-3)GlcNAc(b1-6)GalNAc
# Outline: as §1
# [16] = molecular target: Neu5Ac(a2-3)Gal(b1-3)GlcNAc6S
# Outline: as §1
# [17] = molecular target: Neu5Ac(a2-3)Gal(b1-3)[Fuc(a1-4)]GlcNAc
# Outline: as §1
# [18] = molecular target: Neu5Ac(a2-3)Gal(b1-3)[Fuc(a1-4)]GlcNAc(b1-3)Gal(b1-3)[Fuc(a1-4)]GlcNAc
# Outline: as §1
# [19] = molecular target: Neu5Ac(a2-3)Gal(b1-3)[Fuc(a1-4)]GlcNAc(b1-3)Gal(b1-4)[Fuc(a1-3)]GlcNAc
# Outline: as §1
# [20] = molecular target: Neu5Ac(a2-3)Gal(b1-3)[GlcNAc(b1-6)]GalNAc
# Outline: as §1
# [21] = molecular target: Neu5Ac(a2-3)Gal(b1-3)[Neu5Ac(a2-6)]GalNAc
# Outline: as §1
# [22] = molecular target: Neu5Ac(a2-3)Gal(b1-3)[Neu5Ac(a2-6)]GlcNAc(b1-3)[Fuc(a1-3)[Gal(b1-4)]GlcNAc(b1-6)]Gal(b1-4)Glc
# Outline: as §1
# [23] = molecular target: Neu5Ac(a2-3)Gal(b1-3)]Neu5Ac(a2-3)Gal(b1-4)]GlcNAc
# Outline: as §1
# [24] = molecular target: Neu5Ac(a2-3)Gal(b1-4)Glc
# Outline: as §1
# [25] = molecular target: Neu5Ac(a2-3)Gal(b1-4)GlcNAc
# Outline: as §1
# [26] = molecular target: Neu5Ac(a2-3)Gal(b1-4)GlcNAc(b1-2)Man
# Outline: as §1
# [27] = molecular target: Neu5Ac(a2-3)Gal(b1-4)GlcNAc(b1-2)Man(a1-3)[GlcNAc(b1-4)][Neu5Ac(a2-3)Gal(b1-4)GlcNAc(b1-2)Man(a1-6)]Man(b1-4)GlcNAc(b1-4)GlcNAc
# Outline: as §1
# [28] = molecular target: Neu5Ac(a2-3)Gal(b1-4)GlcNAc(b1-2)Man(a1-3)[Neu5Ac(a2-3)Gal(b1-4)GlcNAc(b1-2)Man(a1-6)]Man(b1-4)GlcNAc(b1-4)GlcNAc
# Outline: as §1
# [29] = molecular target: Neu5Ac(a2-3)Gal(b1-4)GlcNAc(b1-2)Man(a1-3)[Neu5Ac(a2-3)Gal(b1-4)GlcNAc(b1-2)Man(a1-6)]Man(b1-4)GlcNAc(b1-4)[Fuc(a1-6)]GlcNAc
# Outline: as §1
# [30] = molecular target: Neu5Ac(a2-3)Gal(b1-4)GlcNAc(b1-2)Man(a1-3)[Neu5Ac(a2-6)Gal(b1-4)GlcNAc(b1-2)Man(a1-6)]Man(b1-4)GlcNAc(b1-4)GlcNAc
# Outline: as §1
# [31] = molecular target: Neu5Ac(a2-3)Gal(b1-4)GlcNAc(b1-2)[Neu5Ac(a2-3)Gal(b1-4)GlcNAc(b1-4)]Man(a1-3)[GlcNAc(b1-4)][Neu5Ac(a2-3)Gal(b1-4)GlcNAc(b1-2)[Neu5Ac(a2-3)Gal(b1-4)GlcNAc(b1-6)]Man(a1-6)]Man(b1-4)GlcNAc(b1-4)GlcNAc
# Outline: as §1
# [32] = molecular target: Neu5Ac(a2-3)Gal(b1-4)GlcNAc(b1-2)[Neu5Ac(a2-3)Gal(b1-4)GlcNAc(b1-4)]Man(a1-3)[GlcNAc(b1-4)][Neu5Ac(a2-3)Gal(b1-4)GlcNAc(b1-4)Man(a1-6)]Man(b1-4)GlcNAc(b1-4)GlcNAc
# Outline: as §1
# [33] = molecular target: Neu5Ac(a2-3)Gal(b1-4)GlcNAc(b1-2)[Neu5Ac(a2-3)Gal(b1-4)GlcNAc(b1-6)]Man(a1-6)[Neu5Ac(a2-3)Gal(b1-4)GlcNAc(b1-2)Man(a1-3)][GlcNAc(b1-4)]Man(b1-4)GlcNAc(b1-4)GlcNAc
# Outline: as §1
# [34] = molecular target: Neu5Ac(a2-3)Gal(b1-4)GlcNAc(b1-3)Gal
# Outline: as §1
# [35] = molecular target: Neu5Ac(a2-3)Gal(b1-4)GlcNAc(b1-3)Gal(b1-3)GlcNAc
# Outline: as §1
# [36] = molecular target: Neu5Ac(a2-3)Gal(b1-4)GlcNAc(b1-3)Gal(b1-4)GlcNAc
# Outline: as §1
# [37] = molecular target: Neu5Ac(a2-3)Gal(b1-4)GlcNAc(b1-3)Gal(b1-4)GlcNAc(b1-2)Man(a1-3)[Neu5Ac(a2-3)Gal(b1-4)GlcNAc(b1-3)Gal(b1-4)GlcNAc(b1-2)Man(a1-6)]Man(b1-4)GlcNAc(b1-4)GlcNAc
# Outline: as §1
# [38] = molecular target: Neu5Ac(a2-3)Gal(b1-4)GlcNAc(b1-3)Gal(b1-4)GlcNAc(b1-3)Gal(b1-4)GlcNAc
# Outline: as §1
# [39] = molecular target: Neu5Ac(a2-3)Gal(b1-4)GlcNAc(b1-3)Gal(b1-4)GlcNAc(b1-3)Gal(b1-4)GlcNAc(b1-2)Man(a1-3)[Neu5Ac(a2-3)Gal(b1-4)GlcNAc(b1-3)Gal(b1-4)GlcNAc(b1-3)Gal(b1-4)GlcNAc(b1-2)Man(a1-6)]GalNAc
# Outline: as §1
# [40] = molecular target: Neu5Ac(a2-3)Gal(b1-4)GlcNAc(b1-3)Gal(b1-4)GlcNAc(b1-3)GalNAc
# Outline: as §1
# [41] = molecular target: Neu5Ac(a2-3)Gal(b1-4)GlcNAc(b1-3)Gal(b1-4)GlcNAc(b1-3)[Neu5Ac(a2-3)Gal(b1-4)GlcNAc(b1-3)Gal(b1-4)GlcNAc(b1-6)]GalNAc
# Outline: as §1
# [42] = molecular target: Neu5Ac(a2-3)Gal(b1-4)GlcNAc(b1-3)Gal(b1-4)GlcNAc(b1-6)[Gal(b1-3)]GalNAc
# Outline: as §1
# [43] = molecular target: Neu5Ac(a2-3)Gal(b1-4)GlcNAc(b1-3)Gal(b1-4)[Fuc(a1-3)]GlcNAc
# Outline: as §1
# [44] = molecular target: Neu5Ac(a2-3)Gal(b1-4)GlcNAc(b1-3)GalNAc
# Outline: as §1
# [45] = molecular target: Neu5Ac(a2-3)Gal(b1-4)GlcNAc(b1-3)[Neu5Ac(a2-3)Gal(b1-4)GlcNAc(b1-6)]GalNAc
# Outline: as §1
binder,measurement,setting,value
diCBM40 CPF071 (Clostridium perfringens) (protein) MAHHHHHHVGTGSNDDDDKSPDPMLSSLGEYKDINLESSNASNITYDLEKYKNLDEGTIVVRFNSKDSKIQSLLGISNSKTKNGYFNFYVTNSRVGFELRNQKNEGNTQNGTENLVHMYKDVALNDGDNTVALKIEKNKGYKLFLNGKMIKEVKDTNTKFLNNIENLDSAFIGKTNRYGQSNEYNFKGNIGFMNIYNEPLGDDYLLSKTGETKALNGSELGSGSGLSSLGEYKDINLESSNASNITYDLEKYKNLDEGTIVVRFNSKDSKIQSLLGISNSKTKNGYFNFYVTNSRVGFELRNQKNEGNTQNGTENLVHMYKDVALNDGDNTVALKIEKNKGYKLFLNGKMIKEVKDTNTKFLNNIENLDSAFIGKTNRYGQSNEYNFKGNIGFMNIYNEPLGDDYLLSKTGETK,glycan array binding signal (z-score),[1],0.163
same,glycan array binding signal (z-score),[2],-0.036
same,glycan array binding signal (z-score),[3],-0.232
same,glycan array binding signal (z-score),[4],0.404
same,glycan array binding signal (z-score),[5],-0.278
same,glycan array binding signal (z-score),[6],2.26
same,glycan array binding signal (z-score),[7],0.623
same,glycan array binding signal (z-score),[8],0.256
same,glycan array binding signal (z-score),[9],-0.21
same,glycan array binding signal (z-score),[10],-0.3
same,glycan array binding signal (z-score),[11],5.89
same,glycan array binding signal (z-score),[12],-0.162
same,glycan array binding signal (z-score),[13],-0.055
same,glycan array binding signal (z-score),[14],-0.009
same,glycan array binding signal (z-score),[15],-0.181
same,glycan array binding signal (z-score),[16],-0.155
same,glycan array binding signal (z-score),[17],4.37
same,glycan array binding signal (z-score),[18],-0.094
same,glycan array binding signal (z-score),[19],-0.047
same,glycan array binding signal (z-score),[20],0.073
same,glycan array binding signal (z-score),[21],0.81
same,glycan array binding signal (z-score),[22],-0.254
same,glycan array binding signal (z-score),[23],8.45
same,glycan array binding signal (z-score),[24],1.35
same,glycan array binding signal (z-score),[25],4.46
same,glycan array binding signal (z-score),[26],-0.288
same,glycan array binding signal (z-score),[27],-0.074
same,glycan array binding signal (z-score),[28],1.89
same,glycan array binding signal (z-score),[29],5.75
same,glycan array binding signal (z-score),[30],-0.116
same,glycan array binding signal (z-score),[31],1.34
same,glycan array binding signal (z-score),[32],0.36
same,glycan array binding signal (z-score),[33],0.452
same,glycan array binding signal (z-score),[34],2.43
same,glycan array binding signal (z-score),[35],-0.095
same,glycan array binding signal (z-score),[36],4.06
same,glycan array binding signal (z-score),[37],-0.325
same,glycan array binding signal (z-score),[38],5.87
same,glycan array binding signal (z-score),[39],-0.212
same,glycan array binding signal (z-score),[40],-0.157
same,glycan array binding signal (z-score),[41],0.025
same,glycan array binding signal (z-score),[42],-0.225
same,glycan array binding signal (z-score),[43],-0.264
same,glycan array binding signal (z-score),[44],-0.147
same,glycan array binding signal (z-score),[45],0.017
